# Over roughly 33,000 sequences, “E-score (-0.5 to 0.5)” has its median near -0.036; the highest 2% begin near 0.37. The list shows a part of the results.
# Target: T1, Yer064c (UniProt P40041)
# T1 sequence: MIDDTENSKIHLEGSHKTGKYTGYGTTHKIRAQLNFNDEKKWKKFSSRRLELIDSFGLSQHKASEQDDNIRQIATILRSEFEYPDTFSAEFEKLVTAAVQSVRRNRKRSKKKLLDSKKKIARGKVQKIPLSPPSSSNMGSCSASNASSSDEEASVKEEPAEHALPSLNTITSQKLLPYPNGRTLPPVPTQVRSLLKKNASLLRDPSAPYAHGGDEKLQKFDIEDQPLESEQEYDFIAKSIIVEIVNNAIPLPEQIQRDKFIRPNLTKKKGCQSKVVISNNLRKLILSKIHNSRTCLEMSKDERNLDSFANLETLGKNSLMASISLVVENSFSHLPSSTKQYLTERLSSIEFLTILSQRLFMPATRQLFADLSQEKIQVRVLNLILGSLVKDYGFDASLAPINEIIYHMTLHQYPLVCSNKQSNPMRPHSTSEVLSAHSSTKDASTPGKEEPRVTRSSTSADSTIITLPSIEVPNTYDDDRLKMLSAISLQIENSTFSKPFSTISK
# Assay: PBM E-score (8-mer binding enrichment) (E-score (-0.5 to 0.5)); higher = stronger / more preferred TF binding; most listed sequences are background and not binding sites
# Details: protein concentration: 200 nM; construct: GST-full length
# Outline: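 GST-tagged yeast TFs (full-length or DNA-binding domain) were made by PURExpress in vitro transcription/translation and applied at about 100-200 nM to universal all-10-mer Agilent arrays. The arrays were made double-stranded by primer extension, on fresh or once-stripped slides. Bound protein was detected with fluorescent anti-GST, and scans were normalised with masliner. Each ungapped eight-base word, pooled with its reverse complement, received an E-score (modified Wilcoxon-Mann-Whitney statistic) from the Universal PBM Analysis Suite.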
row,Sequence,PBM E-score
1,AACGCGAC,0.0371
2,AATTAACG,-0.0364
3,GCGTTAGA,-0.206
4,ATGCAAAG,-0.0619
5,AATGCACT,-0.0332
6,TGCCGACA,-0.111
7,CCATTGTA,0.005
8,TACAAGCA,-0.0715
9,CCCGAAAC,-0.168
10,ACGTATAT,-0.162
11,ATCTGGTC,0.00852
12,GACAAACA,0.0666
13,TGATGCAA,-0.0847
14,ACCCGGAA,-0.161
15,CAAAATTC,0.0523
16,CTGAAGGC,-0.102
17,GTCTAGAA,0.0656
18,TATTTAGA,0.202
19,CATCCCCG,-0.189
20,ATGATAGC,-0.167
21,AAGAATTA,0.0637
22,AAAGCCCA,-0.13
23,GAAAGTCA,0.428
24,GCTTACGA,-0.101
25,ATTCTAAC,0.0847

row,Sequence,PBM E-score
1,GTAATAGA,-0.0133
2,CGTCTCAA,-0.03
3,AAAGAAAA,0.155
4,CCCCTTAC,-0.134
5,AGTATACG,0.0693
6,AATTTACA,0.0293
7,ATAACATC,-0.0522
8,CAATAGCA,-0.226
9,ACTACGCC,0.06
10,ATGGTATA,-0.0727
11,GGAAAGAA,-0.261
12,TGGCGCCA,-0.339
13,ACTGGGTC,-0.135
14,CCTGGGAC,-0.363
15,TGCGCCAA,-0.237
16,CGGGGTCA,-0.114
17,AACCTCTG,-0.231
18,AACAAGTA,-0.174
19,CCCTCCCA,-0.298
20,CTTTCTTA,0.00049
21,AAGATCCA,-0.183
22,GTTCAATA,0.131
23,CTTCCGGA,0.0611
24,GCGTAATA,0.122
25,GACTCGGC,0.352

row,Sequence,PBM E-score
1,AGTACGCG,0.123
2,TATCCCCA,-0.25
3,GAATAGTC,0.38
4,CAAAAGTC,0.186
5,ATAGCTCC,-0.0199
6,CACTCCAA,-0.0694
7,ATGGGAAA,-0.139
8,ACCATAGT,0.249
9,GTGTCTTA,0.0795
10,GCTATACA,-0.0322
11,GTAAACAA,0.149
12,CGCCATCC,-0.236
13,AGTTTCAA,0.104
14,CTCAATGC,0.0539
15,ATGTTGAA,-0.0376
16,AACGATGC,-0.186
17,AAACGAGT,0.273
18,AGCTCCTC,-0.159
19,CCGTGCCC,-0.27
20,GACATTAA,-0.188
21,CATGAGGA,0.0401
22,CCCCACGA,-0.00086
23,TCCACGAA,-0.0132
24,TACAGCTA,-0.0889
25,CGACTTGC,0.111

row,Sequence,PBM E-score
1,ACGCAAAT,-0.254
2,ACAATGAT,0.201
3,GTGAGGAA,-0.00204
4,CGTGAAAC,-0.122
5,TCGGGCAA,-0.0273
6,GTTGCGAA,-0.0096
7,AGACAGCG,-0.0386
8,GTCGGTAA,-0.0576
9,CGCACGGC,-0.205
10,ATATAAAC,0.0726
11,GGGTTTAA,-0.142
12,AGTCGGCC,0.322
13,CTTACCAC,-0.0371
14,AATAACCA,0.144
15,AATACAAC,-0.0909
16,GAGGAATC,0.216
17,ATGATTAC,0.472
18,AAATAAAA,-0.018
19,AGCCAGTA,-0.134
20,ACATTCAG,-0.149
21,TAGATATA,-0.00404
22,AAAATCAT,0.354
23,ATGTCCTG,-0.129
24,ACCTAGCT,-0.036
25,AATGGAGT,0.151

row,Sequence,PBM E-score
1,GATCTTTA,0.0459
2,AGGTCTTC,-0.249
3,ATTGGATG,-0.062
4,GACCACCA,-0.0392
5,AATTTCTA,-5e-05
6,GTGCCCCA,-0.155
7,AAACCCGG,-0.164
8,TCAGACAA,0.0923
9,GGGCGATA,-0.242
10,CAGATAAA,0.086
11,CGGTCTGA,0.15
12,GTTGCCAA,-0.205
13,AATATCGG,-0.197
14,AATCGCAG,0.202
15,AGAAATGC,-0.278
16,ACTATTAA,0.239
17,CGAGGAAC,-0.223
18,ATTCTGGA,0.0394
19,AAGCAGCA,-0.264
20,ATTAGTCA,0.484
21,GGCCATTA,-0.247
22,CAGTTGGC,-0.0842
23,ACGCGATA,-0.27
24,CACATACG,0.0017
25,CGTGTACC,-0.146

row,Sequence,PBM E-score
1,AGGCTAAA,0.0337
2,CACCGTTA,0.0864
3,GGCGACAC,-0.0533
4,CGTCTCGA,0.0403
5,AAGGATCC,-0.15
6,AATGATTA,0.449
7,AAATATTG,0.0865
8,CCGGCAAG,-0.156
9,GTCTATGA,0.182
10,AGTTCATC,0.0393
11,GGCGGGTA,0.0367
12,AAGGATGT,-0.0818
13,CAAAACAA,-0.00639
14,GACATTCC,-0.225
15,CCGCCCAC,-0.0781
16,CACTCATG,0.222
17,ACGCACAG,-0.247
18,CTTGCACC,-0.15
19,AGGCGCTA,0.00497
20,CGAGGATC,0.038
21,AAGGGCTA,-0.072
22,CCTGGGAG,-0.303
23,GGGTGACC,-0.0382
24,AACGTTAC,-0.0895
25,AACTATAC,0.172

row,Sequence,PBM E-score
1,GCGATGCA,-0.244
2,GAAGATCA,0.02
3,ACCAAACC,-0.0669
4,ACCGACAT,-0.0222
5,GTCGCGAA,0.0905
6,CGAACAGA,-0.078
7,CCAGGCTC,-0.113
8,GCCAGGTA,-0.104
9,AAGATCAC,0.087
10,TATCCGAA,-0.0557
11,CCGGGTTC,-0.171
12,GAGAGCCA,0.132
13,CTAGTTTA,0.0113
14,CGCGCTTA,-0.0228
15,CATTTACA,-0.107
16,ACTCATAT,0.368
17,AAAGTGGA,-0.122
18,AGGACGAG,-0.122
19,GGTTGATA,0.0887
20,GAGAGGCC,-0.238
21,AATTGTGT,-0.0757
22,ACTTGACG,-0.0474
23,AAGGCCTA,-0.272
24,CTTTGCGA,-0.0952
25,ACCCTCTG,-0.0307

row,Sequence,PBM E-score
1,CGTGTTAG,0.133
2,GAAAGGTC,-0.245
3,GCATGTTA,-0.0671
4,ACGACGTA,-0.0468
5,GCGCAACA,0.0632
6,CCGGTAAC,-0.074
7,ATACGGTG,0.129
8,AACTACCT,-0.151
9,ATCAACAA,0.0999
10,ACGATGCC,-0.105
11,CTAAAGCC,-0.0501
12,ATAAGTTG,0.0198
13,AGGAAGTG,-0.0363
14,GTACGTGA,0.148
15,GGCTGAAC,0.0357
16,GCGTCTTA,-0.147
17,ATGAAATG,0.0516
18,CCGACACC,-0.284
19,GTGCGCTA,-0.182
20,AAATAGCT,-0.0477
21,CCCATTTC,-0.194
22,CACGCTTC,-0.138
23,CTGTTCAA,-0.011
24,CTATCATA,-0.0368
25,AAACGACT,0.348

row,Sequence,PBM E-score
1,TATTTTGA,0.109
2,CAGCATCA,0.00385
3,GCCATTTA,-0.0635
4,GCATGCCA,-0.298
5,ATGGGAAT,-0.277
6,CAAAGGCA,-0.163
7,TCGTCCAA,0.1
8,CAAGTTAA,-0.00327
9,ACTATACT,0.0687
10,TTCCCCAA,-0.0573
11,CGGTACCC,-0.0985
12,CCCAGCAG,-0.0621
13,CCGCATGC,-0.139
14,AACTGGCA,-0.0881
15,AACTCAAT,0.191
16,GCGAATAC,-0.0076
17,AACAATGG,-0.0905
18,TAGACAAA,-0.134
19,CCAGGCCA,-0.323

# Source: the supplement of paper PMC3334620
